Some of the results follow. At the low end of the ranking the order means little. Measured with an extract: partners may take part in the binding.
target: T1, HNF4alpha8 (COS-7 nuclear extract) (UniProt P41235-5); test: protein-binding microarray; details: COS-7 nuclear extract on double-stranded Agilent 4x180k PBM; binding buffer, salt, pH and temperature not given; high values mean tight binding; double strand, one strand shown; sequences stand for … in …GCCTAGGGAGATTAGAGTATCGGTCGA
T1 sequence: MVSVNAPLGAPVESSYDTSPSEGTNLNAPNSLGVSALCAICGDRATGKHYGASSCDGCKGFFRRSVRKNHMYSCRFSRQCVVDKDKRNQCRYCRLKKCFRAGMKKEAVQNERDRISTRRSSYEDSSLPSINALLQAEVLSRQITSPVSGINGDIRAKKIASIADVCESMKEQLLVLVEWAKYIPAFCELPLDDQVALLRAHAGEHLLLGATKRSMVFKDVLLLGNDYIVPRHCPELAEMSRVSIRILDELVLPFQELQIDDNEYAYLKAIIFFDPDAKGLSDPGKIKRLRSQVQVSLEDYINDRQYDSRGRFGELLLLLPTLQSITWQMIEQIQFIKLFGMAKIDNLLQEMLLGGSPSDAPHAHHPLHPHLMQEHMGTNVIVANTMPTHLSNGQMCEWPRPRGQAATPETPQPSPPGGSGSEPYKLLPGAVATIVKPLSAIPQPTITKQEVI

Sequence | binding signal (log2 normalized intensity)
GCTAAGAGACAGCTCCACAGCTGGACTTTG | 5.9
GAGGCAGTCCTGGCTTGGCCACCTACTAGC | -1.4
AGAGAGGGATTAAAGTGTAGGGAGTGTCCA | -0.181
CTTTGTTGGTTTTGCCCGAGGTCTGATAAG | 1.55
CAAATATTTACTAGTTAAGTCACTGGGCTG | -1.32
AAGTGTCAGAGCAGGTGAACGACTTGACAA | -1.36
TGGGGTCTCGCTGCTTCGGCCTTTGACCTC | 8.46
TTCATAGGTCAATTCTTTGAAGTCTTCCCT | 1.03
ATCCTGGGCTACCGATATGAGGCTTCCATT | -1.38
GAGAGTCAAAGGTTAATGAGCCCCCTAAAA | 4.43
CAGAGGACAGGTTTCCTGAGTTACAGATAA | -0.778
TGGAGATATGATAGCTGACAAGCAAACACA | -1
CCTCCTATGATCTTTCATTCCTATTGTCCC | 1.88
TCGTGCCCTAATCTCACTCTTTGTTATTTA | 0.865
AAGAATTGCTCAACCTGGACCTCATTAATA | 1.25
AGCAAAGTTCAATTTCCAACAAATGAAACT | -0.885
CAAAAGAGGCTTCCTGGGCCAGGTCACTTG | 0.615
AGCTTGAGAAACAGGGGCTTAAACCTTTAA | -0.773
CTCTCACCTGCCTAACATTCTCTAATCAGG | -1.31
GTTTGTATTCCTTGTCCTTGACCCTTCCTC | 4.13
TAGTGGCTGAAAGTACTGGCCAGATGAGGT | -0.774
TGTGTCTTGATCTTGCAACTCAACCCTGGC | 0.635
ACCGACCTTTGGTTCCTGAACTCAAACCCC | 3.35
ACACAATCTAAAAAGTATGTCATAATGTAC | 1.42

Sequence | binding signal (log2 normalized intensity)
CTATTTACACAGCTGATGGAAGTTTGCCCT | 3.59
CTCTAGCTGTCCTCCTCTGAAGGAACTTCT | -1.3
ATAAATACCAAAGCCATGGCTCCAACCCGA | -1.29
CCCCACCCCCCACCCCAGAAGTATGGGAAG | 4.55
CACAGGAGAAAACAGCACAAGCAATGGCTG | -1.26
GTTATCACAGCTGGCCCACTGTTCTCTCTA | -1.4
CGGGTATGTGGGGCGTGTGTTAGACTTTGG | 4.91
CCATAGCGAAGCCGGCGGCGGAATGCTTGT | -1.36
GCTCTGTTTTACAAACACAATGGAAGGCTG | -1.31
ACCTCAACTCTCAGTTTGGCTCTTATGTCC | 1.21
GAGGAAGGAATGCACATGCCTTAAGGGACC | -1.24
GCAGGAGGTCAGAAACAGAAAGTCCGGGGG | -1.36
GTCATGGCAACAGTTTTCTGGGATGCCCAA | 0.167
GATGGTACAAATTCATGGCTGGGCTCGGCT | -1.37
CTCTGCAACTCAGAGACAGGGATTGGTTCT | -1.19
CTAACAAGCTGCCAAACTCTCACTCTACTC | -1.26
GTGACCTTCGATCACCTCAAGAAAGAGGTG | 2.8
TATTTGACCTTCGGCCTCAATTATAACTCA | 5.59
CTGGACTCAAGGAATCCTCCTAAGTAGCCA | -1.39
TTGAATTCCTGGAAATCCCGAAATAGAGCC | -1.34
GCCTGTGCTAAGTTTCAAAGAGGAGGCAGA | -1.18
CTGGTAAAGCACTTTGCCCCCAAGAAAAGG | 4.2
CACTTGGTGGACATGGTTCACTGATTACTG | 0.694
TTATCTCAGATGAGACTTTGGACTTTTGAA | 8.04

Sequence | binding signal (log2 normalized intensity)
CTCTTCAGAATGGCCTGCCCATCCCCCCAA | 5.38
TCATATGGACTATGTTTACACAGCCTTGTA | 0.615
TCCTCCAAAACCCAGTTCATAGGTCAATTC | 4.9
TGGAGCAATTCAACAACTGTGCATTCTGAA | -0.914
GGAATGTGCAAACGGCCCAGGGTTAGAGGA | -1.25
AGGCAGCATGGAATGACTTTGGGGAAATGA | -1.47
GATGAAGCAATAGGAATCACACAACTTTCA | -1.38
GCAGAGGCCTGATGGTGAGTTCTGTCCTTT | 2.44
CTTGGCTGTGCTGCCCTTTGCCCTTTGGGA | 7.91
AGCTGGACTTTGAACTTCATGTGTGGTGCA | 6.95
CCGTTAGCCAATATTTGCAAGGCTGTTGGC | -0.823
CTGAAGACAAAGCACAATCAAAGCAATGGC | -1.3
CTAGGAGAATCACTAGGACATATATGAGGA | -1.24
GATTGGGTCTTCTAGAAACAACACACCTTG | -1.21
GGGCTTGCAAAGGTCAGGTTTCAGGAATCA | 2.13
GTCACCTACATGTGAGAGAGGCTTATGCAT | -1.38
TCAAGGGTGTTCCTGAGTAAATCTCACATT | 0.084
TATCTGGTTCAAAGGTCATTTCTGCTTGCA | 6.43
ACAAGCGTCGCTGAGTGGAGGCCCAGTAAG | -1.25
TGTTCTCTTTATTTATTAACTGGAGATAAC | 0.939
GACCAGCGTGTGGCGCCATTTCAGGTCCAC | 1.74
ACTCGGAGGACTGAGCCCGCTCCACTCCGG | -1.33
TTCCACAAACACAGATCAGATATGAGATTC | -1.39
CTTTCCTGGGCCTTAAAGCATGACAAAATA | -0.334

Sequence | binding signal (log2 normalized intensity)
TCTGCTGGGCCTTCAGCTTGAAAACACAAC | -1.42
GGTGAAATAGCTGAACTATTTAAGGCCTTT | 0.507
CCGCCCACCCTTTTTTTTCTTTCTTTTCCC | 1.46
CACATTCCATTCTCACTGACTCACGGCAGC | -1.24
ACTTCCAAAGCCCCTTTCCACTCTACCGTC | 0.894
GAAACATGACACCCATCATGAGTAGGTTTA | -1.19
TTGCATCTCCTCCTCCCATTCCAGCTCTTT | 0.802
AGTCCGGGGGCCAGTTCACTCAGTCCACAT | 3.21
CCTGACCTTTGGATTCCCAGATGGAGTGCT | 3.88
CAGTAGATAACCTCAAAGAGCATGGCGCCA | -1.36
ATCAAAGCAGTATCATCAACATGCACTAGC | -1.32
ACTTAGTCCAGGTTTAGCAAGAATACTGCT | -1.3
ACTCATGCTTTCTTATCTGGGGGCCATTCC | 1.65
GAGATAAGGGGGTCAGTTCAAAAGACTCAT | -0.518
TTGTCCTTCACTTGTAGGAGACCTTGAGGA | 1.67
ATTTTATGGGAAAACAGAATGGTCTGTATT | 1.03
AACTCCTATGTGAATCTAATGCCACCATTG | -1.36
CTTAACATGGTTTGCAAGACCTCTGAGAAC | 0.556
GAGGGATCAGGTCTTTCCTGTCCCAAGGGG | 0.312
TTCCCGAGTGCCTTTAGAGGGCAAGGATCA | 3.29
GTCTTTGCTTTTTGAAAAGCTGTAGTGAAC | 1.21

— article PMC10726135
